# Laboratory results reported in publication PMC4336329 (PLoS ONE, 2015).
# In all, about 310,000 compounds went through this assay and about 14,000 (4.5%) showed an effect of 50% or more. The effect is printed as a negative number. The list shows a part of the results.
# Target: human ether-à-go-go-related gene (hERG) potassium channel (human, UniProt Q12809)
# Assay: primary screen, population patch clamp on CHO cells stably expressing hERG
# 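Also: peak tail current of the secondary pulse compared with the same well before compound.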
# human ether-à-go-go-related gene (hERG) potassium channel, sequence (Q12809 whole entry, looked up): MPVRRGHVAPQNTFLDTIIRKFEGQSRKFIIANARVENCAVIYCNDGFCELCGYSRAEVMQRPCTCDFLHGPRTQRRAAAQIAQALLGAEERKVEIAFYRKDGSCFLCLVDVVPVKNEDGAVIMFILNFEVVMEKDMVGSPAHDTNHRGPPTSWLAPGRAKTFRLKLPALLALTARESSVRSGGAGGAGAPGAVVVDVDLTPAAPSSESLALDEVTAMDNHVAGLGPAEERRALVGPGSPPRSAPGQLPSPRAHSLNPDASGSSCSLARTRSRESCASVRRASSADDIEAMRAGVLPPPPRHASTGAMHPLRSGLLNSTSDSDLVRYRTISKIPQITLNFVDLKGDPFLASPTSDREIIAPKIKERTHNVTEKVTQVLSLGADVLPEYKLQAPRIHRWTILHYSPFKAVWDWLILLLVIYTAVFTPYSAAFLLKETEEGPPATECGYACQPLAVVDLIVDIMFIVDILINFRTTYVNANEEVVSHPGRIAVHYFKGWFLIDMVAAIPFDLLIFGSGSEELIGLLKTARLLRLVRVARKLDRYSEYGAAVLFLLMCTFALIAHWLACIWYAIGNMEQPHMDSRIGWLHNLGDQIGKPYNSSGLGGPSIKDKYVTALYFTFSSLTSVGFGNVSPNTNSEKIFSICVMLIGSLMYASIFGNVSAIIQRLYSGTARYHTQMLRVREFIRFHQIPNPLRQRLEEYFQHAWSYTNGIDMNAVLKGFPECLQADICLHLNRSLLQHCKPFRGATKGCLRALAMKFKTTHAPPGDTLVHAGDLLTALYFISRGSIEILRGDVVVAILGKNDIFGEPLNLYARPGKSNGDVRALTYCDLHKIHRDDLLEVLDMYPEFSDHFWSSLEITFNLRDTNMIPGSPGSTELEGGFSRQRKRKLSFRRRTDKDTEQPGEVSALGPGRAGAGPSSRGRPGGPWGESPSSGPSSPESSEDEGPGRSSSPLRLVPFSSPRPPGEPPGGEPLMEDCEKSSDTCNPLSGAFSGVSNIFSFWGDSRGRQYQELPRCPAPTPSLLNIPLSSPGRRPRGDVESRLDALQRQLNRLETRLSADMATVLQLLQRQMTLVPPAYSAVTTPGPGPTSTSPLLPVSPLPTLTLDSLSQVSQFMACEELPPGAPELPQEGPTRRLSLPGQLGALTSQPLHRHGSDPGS
row,Compound,"hERG current change (%, negative = inhibition) at 10uM [%]"
1,Cc1ccc(SCCC(=O)NC(C)(C)C)cc1,-2.99
2,O=C(O)/C=C/c1ccc2ccccc2n1,2.35
3,O=C(CNC(=O)C(c1ccccc1)c1ccccc1)N/N=C\c1cccc(O)c1,9.9
4,Cn1ncc([N+](=O)[O-])c1C(=O)Nc1cccc(Cl)c1,9.55
5,Cc1nn(-c2nc3ccccc3[nH]2)c(N)c1-c1ccc(Cl)cc1,6.92
6,CCOC(=O)c1ccc(NC(=O)C2(c3ccccc3)CCOCC2)cc1,0.462
7,COc1ccc(-c2noc(CCCC(=O)NCc3ccco3)n2)cc1OC,1.2
8,Cc1ccc(S(=O)(=O)NN2C(=O)c3ccccc3NC2c2ccccc2)cc1 (stereo not shown),-16.6
9,CC(C)NC(=O)c1ccc(CN2CCc3ccccc3C2)cc1,-44.5
10,C[C@]12CC[C@H](O)C[C@@H]1CC[C@@H]1[C@@H]2CC[C@]2(C)C(=O)CC[C@@H]12,-58.3
11,O=C(Nc1cc(C(F)(F)F)cc(C(F)(F)F)c1)Nc1cnn(-c2ccc([N+](=O)[O-])cc2)c1C(F)(F)F,2.7
12,CC1=NN(C(=O)c2ccc(Cn3nc(C)cc3C)o2)C(O)(C(F)(F)F)C1 (stereo not shown),5.71
13,Cn1c(=O)c2c(nc(Br)n2CCSc2ncccn2)n(C)c1=O,-2.94
14,O=C(Cn1cnc2c(nnn2Cc2ccccc2)c1=O)NCC1CCCO1 (stereo not shown),0.631
15,Cc1c(CC(=O)O)c(=O)oc2c(C)c(OCc3nn[nH]n3)ccc12,19.2
16,Cl.N=C(N)c1ccc(Cl)cc1,28.3
17,Cc1ccc(C)c(OCC(=O)N2CCN(Cc3ccc4c(c3)OCO4)CC2)c1,-23.3
18,CC1(C)CC2(CCO1)OC(=O)CC2C(=O)Nc1ccccc1Cl (stereo not shown),1.54
19,Cc1ccnc(NC(=O)C2CC(=O)N(c3ccc4c(c3)OCCO4)C2)c1 (stereo not shown),11.2
20,Cc1ccc(CN2CCN(Cc3ccccc3)C(CCO)C2)s1 (stereo not shown),-62.8
21,O=S(=O)(c1ccccc1)N1CCOCC1,1.77
22,Fc1ccccc1C1CC(c2ccco2)=Nc2ccccc2S1 (stereo not shown),9.99

row,Compound,"hERG current change (%, negative = inhibition) at 10uM [%]"
1,CCO[C@@H]1OC(C(=O)NCc2nc3ccccc3[nH]2)=C[C@H](c2coc3ccccc3c2=O)[C@H]1CCCO,-9.12
2,CN(c1ccccc1)S(=O)(=O)c1cccc(NC(=O)CCNC(=O)c2ccc(Cl)cc2)c1,-19.6
3,O=C(Nc1ccccc1)[C@@H]1CC=C[C@@H]2CCN(Cc3ccccc3)C(=O)[C@@H]21,-8.95
4,COc1cc2c(cc1OC)CN(C(=O)Cc1ccc(OC)c(S(=O)(=O)N3CCOCC3)c1)CC2,-3.56
5,O=C(CCN1C(=O)C2C3C=CC(C3)C2C1=O)Nc1ccc(F)cc1 (stereo not shown),-1.72
6,CCCn1c(SCC(=O)NCC)nc2sc3c(c2c1=O)CCC3,0.894
7,CCn1c(SCC(=O)Nc2ccc3c(c2)OCO3)nnc1-c1ccccc1O,7.21
8,CCN1C[C@]2(C)CC[C@H](O)[C@]34C1[C@H](C[C@H]23)[C@@]1(O)C[C@H](OC)[C@H]2C[C@@H]4[C@@H]1C2O (stereo partly shown),15.2
9,COc1ccc(C(=O)NCCC(=O)NCc2cc(=O)n(C)c(=O)n2C)cc1,20.7
10,S=C(NC1CCCCC1)N1CCOCCOCCN(C(=S)NC2CCCCC2)CCOCC1,-5.84
11,COc1ccc(Nc2ncnc3ccccc23)c(OC)c1.Cl,-10.2
12,CCC(=O)N1CCc2cc(S(=O)(=O)NC(CC(C)C)C(=O)N3CCc4ccccc43)ccc21 (stereo not shown),-2.28
13,S=c1[nH]c2ccccc2o1,18
14,COc1cccc(CN(CC2CCCO2)S(=O)(=O)c2ccc(-n3cnnn3)c(OC)c2)c1 (stereo not shown),-28.1
15,CCCc1nc(SCC(=O)NNC(=O)C2CCCCC2)c2ccccc2n1,-2.77
16,Cc1c2ccccc2nc2c(F)c(NC(C)C)c(F)c(F)c12,-2.39
17,Cc1cccc(C=Nc2ccc3c4c(cccc24)CC3)c1O,14
18,CC(=O)c1ccc(S(=O)(=O)N2CCN(C(=O)c3ccc(-n4cncn4)c([N+](=O)[O-])c3)CC2)cc1,-19.7
19,Cc1ccc(Cl)cc1NC(=O)NCc1cccnc1,13.2
20,S=C(NCCN1CCOCC1)N1CCN(c2cccc(Cl)c2)CC1,-16
21,O=C1CC(C(=O)Nc2ccccc2)N=C(N2CCOCC2)N1 (stereo not shown),3.33
22,CC(=O)c1cc(F)c(N2CCN(CCC#N)CC2)cc1C,9.89

row,Compound,"hERG current change (%, negative = inhibition) at 10uM [%]"
1,COc1cccc2oc(-c3ccco3)cc(=O)c12,-1.12
2,CCOc1ccc(-c2nc(CSCC(=O)NC3CCCc4ccccc43)c(C)o2)cc1 (stereo not shown),-23.6
3,COCCNC(=O)C(=O)c1cc(C)n(-c2ccc([N+](=O)[O-])cc2)c1C,-42
4,COC(=O)c1nc(N)sc1C(C)C,33.9
5,CCOC(=O)c1c(NC(=O)Cn2cnc3sc(C)c(-c4ccccc4)c3c2=O)sc(C)c1C,3.9
6,CSCCC(NC(N)=O)C(=O)N(C)CC(=O)Nc1ccc(C)cc1 (stereo not shown),6.41
7,CCOC(=O)Cc1c(C)nc2c(-c3ccccc3)c(-c3ccccc3)[nH]n2c1=O,-13.3
8,CN(C)S(=O)(=O)c1ccc(N=Cc2c(C(F)(F)F)[nH]n(C)c2=O)cc1,14.9
9,CC(C)N1C(=O)CCC1C(=O)O (stereo not shown),12.8
10,CCOC(=O)c1nc(SC)n(C)c1C(=O)OCC,14.5
11,O=C(c1ccc(F)cc1)N1CCCCC(Sc2nnc3ccccn23)C1=O (stereo not shown),-59.9
12,CCSC1=C(C#N)C(c2cccc(O)c2)CC(=O)N1 (stereo not shown),2.7
13,CCn1c(-c2ccc(C)cc2)nn(CC(=O)NCCc2ccccc2)c1=S,-17.6
14,O=C(Nc1ccncc1)c1ccc2c(c1)C(=O)N(CC1CCCO1)C2=O (stereo not shown),-12.7
15,O=C(c1ccccc1)N(Cc1cccnc1)C1(C(=O)Nc2ccccc2)CCCCC1,5.29
16,CC1(C)CCC[C@@]2(C)CC=C(C(=O)O)[C@@H]3C[C@]312,11.7
17,CCOc1c(OC)cccc1C1CC(=O)Nc2cc3c(cc21)OCCO3 (stereo not shown),-1.63
18,CCC(=O)Nc1sc(C(=O)Nc2ccccc2F)c(C)c1C(=O)OC,1.65
19,CCS(=O)(=O)N1CCN(c2ccc([N+](=O)[O-])c(N3CCOCC3)c2)CC1,-0.384
20,CCN(CC)CCNC(=O)C1CCN(S(=O)(=O)c2c(C)noc2/C=C/c2ccccc2F)CC1,-36.2
21,O=C(Oc1c(Br)cc(C(=S)N2CCOCC2)cc1Br)c1ccc(Cl)cc1,11.3
22,CC12COC3(C(=O)N4CCN(c5ccccn5)CC4)CC1CCC32C (stereo not shown),-17.7

row,Compound,"hERG current change (%, negative = inhibition) at 10uM [%]"
1,CCOc1ccc(C(C)=O)cc1Cn1c(=O)oc2ccccc21,4.36
2,CC(=O)c1c(C)[nH]c(C(=O)OCc2ccccc2F)c1C,8.53
3,CSc1nc2ccc3nc(NC(=O)c4ccc(C)cc4)sc3c2s1,15.7
4,CCOc1ccc(C(=O)NCC(=O)OCc2c(C)noc2C)cc1,-1.61
5,Cc1nnc(NC(=O)c2ccc(S(=O)(=O)N3CC(C)CC(C)C3)cc2)o1 (stereo not shown),5.33
6,O=C(CN(Cc1cccs1)C(=O)CNS(=O)(=O)c1ccc(Cl)cc1)NCC1CCCO1 (stereo not shown),-10.7
7,O=C(COc1ccccc1)Nc1ccccc1F,12.7
8,O=C(OCC(=O)N1CCc2ccccc21)c1ccccc1[N+](=O)[O-],-2.35
9,CC1CCC2(CC1)NC(=O)N(CC(=O)N(Cc1ccccc1)C(C)(C)C)C2=O (stereo not shown),10.6
10,COc1cccc(NC2=C(Cl)C(=O)OC2OC(=O)c2ccco2)c1 (stereo not shown),8.53
11,O=C1CC(C(=O)O)S/C(=N\NC(=O)c2ccc(F)cc2)N1 (stereo not shown),-1.66
12,O=C(NNc1nc(-c2ccccc2)cs1)c1ccccc1,3.27
13,Cc1ccc(-n2ccc(=O)c(C(=O)Nc3ccc(S(=O)(=O)N4CCOCC4)cc3)n2)cc1,7.92
14,CC(C)(C)NC(=O)NC(=O)COC(=O)c1cccc(S(=O)(=O)N2CCCCC2)c1,9.66
15,Cc1nc2ccccc2c2c1C(=O)N(c1cccc(C(=O)O)c1)C2=O,23.2
16,Clc1ccc(Cl)c(OCc2cc(-c3ccccc3Cl)on2)c1,18.7
17,Cc1cc(C(=O)OCC(=O)c2ccc(Br)s2)c(C)o1,-1.64
18,c1ccc(CNc2ncnc3sc4c(c23)CCCC4)nc1,-27.4
19,CC(/C=N/NC(=O)c1nnn(-c2nonc2N)c1CN1CCCCC1)c1ccccc1 (stereo not shown),-21.8
20,CC1(C)CC(=O)c2cc(N=C/C(C(=O)c3ccccc3)=C(\O)c3ccccc3)c(=O)oc2C1,17.6
21,CCc1n[nH]c(=S)n1/N=C/c1ccc2c(c1)OCO2,11.3
22,COc1ccccc1OCc1ccc(C(=O)NN)o1,16.5
